# PubChem BioAssay AID1346428 (National Center for Advancing Translational Sciences (NCATS), 2018)
# The whole screen tested about 48,000 compounds, of which about 1,200 (2.5%) were called active. Not shown: some 2% with an inconclusive outcome.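 Rule for the calls: active = activation of at least 60% and not above a set upper limit (about 1 call in 100 departs from these limits); inconclusive = activation of 40% to 60%, or above that upper limit; inactive = activation under 40%.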 Some of the results follow.
# Molecular target: Probable G-protein coupled receptor 32 (Homo sapiens) (UniProt O75388)
# Experiment: qHTS for Agonists of Human Resolvin D1 Receptor DRV1; note: 0% is about no effect
# Details: CHO-K1 GPR32 beta-arrestin PathHunter luminescence, 90 min; at 76.9 µM; stronger effect = higher value; zero percent set by DMSO-only wells
# Summary of the method: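 Agonism was scored by beta-Gal fragment complementation (chemiluminescent read, 1 h detection at ambient temperature) reporting beta-arrestin binding to GPR32 in engineered CHO-K1 cells. Compound treatment lasted 90 min at 37 C, normalized to a DMSO basal control.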
# UniProt O75388, sequence (O75388 whole entry, looked up): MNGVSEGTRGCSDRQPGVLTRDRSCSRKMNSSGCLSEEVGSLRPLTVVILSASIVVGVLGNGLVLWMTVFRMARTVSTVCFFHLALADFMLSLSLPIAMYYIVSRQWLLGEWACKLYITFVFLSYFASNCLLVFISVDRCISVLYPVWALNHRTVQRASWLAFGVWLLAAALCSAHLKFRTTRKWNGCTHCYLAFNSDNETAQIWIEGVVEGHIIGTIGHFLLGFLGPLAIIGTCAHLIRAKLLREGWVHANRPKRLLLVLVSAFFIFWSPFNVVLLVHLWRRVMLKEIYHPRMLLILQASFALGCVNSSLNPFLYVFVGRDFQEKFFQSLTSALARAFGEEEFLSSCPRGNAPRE
row,Compound,activation
1,COc1ccc(CNC(=O)c2cc3c(=O)[nH]c4ccc(C)cc4c3s2)c(OC)c1,inactive: -7.25%
2,COC(=O)[C@@H]1CC2=CC(=O)CC[C@]2(C)[C@@]23O[C@@H]2C[C@@]2(C)[C@@H](CC[C@@]24CCC(=O)O4)[C@H]13,inactive: 44.6%
3,O=C(NC1CC(=O)N(c2ccc(F)cc2)C1)c1cccs1 (stereo not drawn),inactive: -3.83%
4,Cc1ccn2c(Nc3ccc(F)cc3)c(-c3ccc(C)o3)nc2c1,inactive: -16.8%
5,COc1cc(CN(C(=O)COc2ccc(Br)cc2)c2ccccn2)cc(OC)c1OC,inactive: -0.412%
6,CN1CCN(C(c2ccccc2)c2ccccc2)CC1,inactive: -7.31%
7,COc1ccc(CNC(=O)C2CCN(c3nc4ccccc4[nH]3)CC2)c(OC)c1,inactive: -16.3%
8,COc1cc2nc(SCc3ccc(Cl)cc3)n3nc(CCn4nc(C)cc4C)nc3c2cc1OC,inactive: 6.68%
9,COC(=O)c1cccc(NC(=O)C2CCN(S(=O)(=O)Cc3ccccc3)CC2)c1C,inactive: 1.54%
10,CCCCOc1ccc(OC(=O)c2sc3ncn(Cc4cccc(F)c4)c(=O)c3c2C)cc1,inactive: 2.31%
11,Cc1nn(C(=O)c2ccc(Cl)cc2)c(C)c1Sc1ccc(Cl)cc1,inactive: 45.9%
12,CC(=O)c1sc2c(c1C)c(=O)n(-c1ccc(Cl)cc1)c(=O)n2Cc1cc(=O)n2cc(Cl)ccc2n1,inactive: -11.4%
13,CCCSc1nc2sc3c(c2c(=O)n1-c1ccccc1)CCC(C)C3 (stereo not drawn),inactive: 10%
14,Cc1cc(NC(=O)CSc2nc(-c3ccccc3F)nc3c2c(=O)n(C)c(=O)n3C)no1,inactive: -4.53%
15,Cc1ccc2oc(=O)c3cc(C(=O)N4CCN(c5ccccc5)CC4)sc3c2c1,inactive: -18.7%
16,CCCCCn1c(=O)[nH]c2cc(C(=O)Nc3cc(OC)cc(OC)c3)ccc2c1=O,inactive: 2.95%
17,Cc1cccc(CNC(=O)C2CCCN(S(=O)(=O)c3cn(C)cn3)C2)c1 (stereo not drawn),inactive: -9.66%
18,COc1ccccc1CNC(=O)CCn1c(=O)c2ccccc2n(CC(=O)Nc2ccc(C)cc2)c1=O,inactive: -4.2%
19,Cn1nnnc1SCCCNCc1ccc(-c2ccc(Br)cc2)o1,inactive: -20.3%
20,Cc1ccccc1CCNC(=O)c1ccc2c(c1)c(C)c(C)n2C,inactive: -24.3%
21,O=C(O)Cc1ccc(CCNS(=O)(=O)c2ccc(Cl)cc2)cc1,inactive: -2.38%

row,Compound,activation
1,COC(=O)c1cc2oc3ccccc3c2n1Cc1cccc(C)c1,inactive: 5.04%
2,CN(C)S(=O)(=O)c1ccc2c(c1)N(CC(=O)NCc1ccccc1)C(=O)C1CCCCN21 (stereo not drawn),inactive: -21.3%
3,CCC1CN(C(=O)NCc2ccc(C)cc2)c2cc(C)ccc2O1 (stereo not drawn),inactive: -32.5%
4,CCCCCNC(=O)c1c[nH]c2ccc(S(=O)(=O)N3CCC(C)CC3)cc2c1=O,inactive: -19.2%
5,Cc1ccc(NC(=O)CSc2nc3ccccc3nc2Cc2ccccc2F)cc1F,inactive: 3.62%
6,Cc1nn(S(=O)(=O)c2ccc(C(C)C)cc2)c(C)c1S(=O)(=O)N1CCCCCC1,inactive: -3.01%
7,COc1ccc(-c2nsc(NC(=O)COc3ccc(C)c(C)c3)n2)cc1,inactive: -6.88%
8,CCc1ccccc1NC(=O)C1(S(=O)(=O)c2ccc(Cl)cc2)CC1,inactive: -29.6%
9,Cc1ccc(C)c(N2CCN(C(=O)c3cc4ccc5cccnc5c4[nH]3)CC2)c1,inactive: -21.4%
10,CCOC(=O)c1c(C)oc2ncnc(Nc3ccc(F)cc3Cl)c12,inactive: -3.48%
11,Cc1ccc(OCC(=O)Nc2ccc(Cl)c(-c3nc4ncccc4o3)c2)cc1C,inactive: 36%
12,Cc1cc(C)cc(NC(=O)CN2C(=O)CSc3ccc(S(=O)(=O)N(C)C)cc32)c1,inactive: -14.7%
13,O=C(COc1ccc(F)cc1)Nc1ccc(OCc2cc(=O)n3ccsc3n2)cc1,inactive: -2.57%
14,Cc1cccc(NC(=O)c2cccc(N3CCCS3(=O)=O)c2)c1,inactive: 15.4%
15,COc1ccc(NS(=O)(=O)c2cc(-c3onc(C)c3C)ccc2C)c(OC)c1,inactive: -15.3%
16,CCC1CN(C(=O)N2CCC(C(=O)NCCCc3ccccc3)CC2)c2cc(C)ccc2O1 (stereo not drawn),inactive: -20.9%
17,Cc1ccccc1NC(=O)Cn1c(=O)n(CCC(=O)N2CCc3ccccc3C2)c(=O)c2ccccc21,inactive: 9.34%
18,Cc1ccc(CNC(=O)CN2Cc3ccccc3C2=O)cc1,inactive: 9.5%
19,COc1ccc(NC(=O)CCS(=O)(=O)c2cc3c(cc2C)NC(=O)CO3)cc1Cl,inactive: -2.34%
20,Cc1ccc(Cl)cc1NC(=O)c1sc2nc(C)c(C)c(C)c2c1N,inactive: 37.9%
21,CCOC(=O)c1ccccc1NC(=O)N(Cc1ccc(CC)cc1)Cc1cn[nH]c1-c1ccc(OC)cc1,inactive: -31.7%

row,Compound,activation
1,Cc1ccc(C2CC(=O)n3nc(-c4ccc(F)cc4)nc3S2)cc1 (stereo not drawn),inactive: 24.7%
2,CCCc1cnc2c(c1SCC(=O)Nc1ccc([N+](=O)[O-])cc1)c(=O)n(C)c(=O)n2C,inactive: -4.89%
3,Cc1ccc(NC(=O)Cn2c(=O)n(CCC(=O)N3CCc4ccccc4C3)c(=O)c3ccccc32)c(C)c1,inactive: -9.6%
4,COc1ccc(C2c3c(-c4ccccc4)n[nH]c3C(=O)N2c2ccc(C(=O)O)cc2)c(OC)c1 (stereo not drawn),inactive: 8.92%
5,COC(=O)c1ccc2c(c1)sc(=NC(=O)c1ccc(S(=O)(=O)N3CCCCC3)cc1)n2C,inactive: 6.27%
6,Cc1ccc(-c2cnc(C3CC3)o2)cc1S(=O)(=O)Nc1cccc(C#N)c1,inactive: 21.5%
7,COc1cc(NC(=O)Cn2c(-c3ccccc3)cc(C(C)=O)c2C)cc(OC)c1,inactive: -13.2%
8,Cc1ccc(-c2c(CN3CCN(c4cccc(C)c4C)CC3)csc2C)cc1,inactive: -21.9%
9,CN(Cc1ccccc1)C(=O)CSc1c2c(nc3ccc(Cl)cc13)CCCC2,inactive: -9.96%
10,Cc1cc(O)c(C(c2ccccc2)N2CCC(C)CC2)c(=O)n1Cc1ccco1 (stereo not drawn),inactive: 3.01%
11,Cc1ccc(CCNC(=O)c2cc(-c3ccccc3)n[nH]2)cc1,inactive: 32.3%
12,CC(=O)c1ccc(NC(=O)CSc2nnc3ccc(-c4ccc(F)cc4)nn23)cc1,inactive: 10.1%
13,CCN(C(=O)c1sc2nc3n(c(=O)c2c1C)CCCC3)c1ccccc1F,inactive: -28.8%
14,Cc1cccc(NC(=O)C2CCCN2S(=O)(=O)c2cccc3nsnc23)c1C (stereo not drawn),inactive: 8.79%
15,CN(C)c1ccc(C(CNC(=O)c2ccc(C(C)(C)C)cc2)N2CCCC2)cc1 (stereo not drawn),inactive: -15.4%
16,Cc1cn2c(=O)cc(COc3ccc(NC(=O)c4ccc(C(C)(C)C)cc4)cc3)nc2s1,inactive: -0.341%
17,COc1ccc(CNC(=O)CCc2c(C)nn(-c3ccc(N4CCOCC4)nn3)c2C)c(OC)c1,inactive: 6.73%
18,CCC1=C(c2ccc(C)cc2)S(=O)(=O)N=C1N1CCC(C(=O)Nc2ccccc2C(=O)OC)CC1,inactive: 18.1%
19,CCOC(=O)c1ccc(NC(=O)CN2C(=O)C(C)(C)c3ccccc32)cc1,active: 109%
20,Cc1ccc(C)c(NC(=O)c2cnn(-c3ccc(F)cc3F)c2C2CCNCC2)c1,inactive: 19%
21,Fc1ccccc1C(NCCc1ccc(Cl)cc1)c1nnc(-c2ccccc2)o1 (stereo not drawn),inactive: -34.7%

row,Compound,activation
1,CCCC12CN3CC(CCC)(CN(C1)C3c1ccc(OCc3ccccc3)cc1)C2=O (stereo not drawn),inactive: -1.87%
2,Cc1cccc(C)c1NC(=O)CCSc1nc(-c2ccc3c(c2)OCO3)cc(C(F)(F)F)n1,inactive: -1.52%
3,O=C(CSc1ncc2c(n1)-c1ccccc1N(Cc1ccc(Cl)cc1)S2(=O)=O)c1ccc(Cl)cc1,inactive: -15.9%
4,COc1ccccc1NC(=O)CN(C)S(=O)(=O)c1cccc2cccnc12,inactive: -7.09%
5,Cc1ccc(Nc2ccc(N3CCN(C(=O)c4cccc([N+](=O)[O-])c4)CC3)nn2)cc1,inactive: -17.6%
6,CC(=O)N1CCc2c(sc3c2c(=O)n(CCc2ccccc2)c(=O)n3Cc2ccc(F)cc2)C1,inactive: -13.5%
7,CCc1ccc(-n2c(CCC(=O)O)ccc2-c2cccs2)cc1,inactive: 9.51%
8,COc1ccc(-n2ccn(CC(=O)Nc3ccccc3C(F)(F)F)c(=O)c2=O)cc1OC,inactive: -8.51%
9,CCOc1ccc(NC(=O)c2sc3nc(-c4ccc(OC)cc4)cn3c2C)cc1,inactive: -9.56%
10,Cc1ccccc1NC(=O)Cn1c(=O)n(CCCCCC(=O)NCc2ccc3c(c2)OCO3)c(=O)c2sccc21,inactive: -22.2%
11,Cc1c(Cl)cccc1NC(=O)CSc1nc(=O)n(CCN2CCOCC2)c2c1CCC2,inactive: -11.4%
12,COc1ccc(-c2nsc(NC(=O)c3ccccc3Br)n2)cc1,inactive: 19.9%
13,COc1cc(NC(=O)C2CCCN(S(=O)(=O)c3cn(C)cn3)C2)cc(OC)c1 (stereo not drawn),inactive: -6.61%
14,CCOC(=O)c1cc2c(=O)n3ccccc3nc2n(CC(C)C)c1=NC(=O)C(C)Oc1ccccc1 (stereo not drawn),inactive: -7.45%
15,CC(=O)Nc1ccc(NCc2nnc3n2CCCCC3)cc1,inactive: -8.91%
16,CCc1ccccc1NC(=O)CCc1c(C)nc2cc(-c3ccccc3)nn2c1C,inactive: 22.2%
17,CCOc1ccc(NC(=O)CCS(=O)(=O)c2cc3c4c(c2)CCN4C(=O)CC3)cc1,inactive: -13%
18,Cc1ccc(Nc2ccc(N3CCN(C(=O)c4ccc([N+](=O)[O-])cc4Cl)CC3)nn2)cc1,inactive: 24.9%
19,Cc1nnc(N2CCN(C(=O)Nc3cc(F)ccc3F)CC2)c2nn(-c3ccc(Cl)cc3)c(C)c12,inactive: 8.41%
20,O=C(NC1CC(=O)N(c2ccc(Cl)cc2)C1)C(=O)c1c[nH]c2ccccc12 (stereo not drawn),inactive: 20.2%
